Results taken from PubChem BioAssay AID1461 (National Center for Advancing Translational Sciences (NCATS), 2008).
Among all 220,000 compounds or so, about 2,300 (1%) were called active. The inconclusive results got no clear call from the source; some entries with a clear call stand among them for comparison. Calls come from the whole dose curve; as a rule, active = well fitted inhibition curve with a large enough effect; inconclusive = small, poorly fitted or top-dose-only effect, or effect the other way; inactive = no such curve, though single readings can be large or run the other way. Potencies of inconclusive entries are left out as doubtful fits.

target: Neuropeptide S receptor (Homo sapiens) (UniProt Q6W5P4); assay: qHTS Assay for Antagonists of the Neuropeptide S Receptor: cAMP Signal Transduction; conditions: CHO-NPSR cells, cAMP TR-FRET, antagonist mode; series mostly up to 38.3 µM; note: nearly all actives have a fitted effect of over 50% in size
UniProt Q6W5P4, sequence (Q6W5P4 whole entry, looked up): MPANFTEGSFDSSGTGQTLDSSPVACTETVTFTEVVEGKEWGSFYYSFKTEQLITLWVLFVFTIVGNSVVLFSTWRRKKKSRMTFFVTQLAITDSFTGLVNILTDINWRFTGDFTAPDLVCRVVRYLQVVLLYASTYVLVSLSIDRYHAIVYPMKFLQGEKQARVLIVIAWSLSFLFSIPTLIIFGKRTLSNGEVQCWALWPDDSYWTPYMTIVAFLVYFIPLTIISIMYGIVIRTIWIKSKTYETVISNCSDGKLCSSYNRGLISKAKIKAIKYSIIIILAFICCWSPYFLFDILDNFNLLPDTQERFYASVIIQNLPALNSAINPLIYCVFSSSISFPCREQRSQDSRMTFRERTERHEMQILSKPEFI
Potency is the fitted concentration of half-maximal effect; tags give direction and shape of the fitted curve.

Row | Compound | Potency
1 | CC(C(=O)NC1CCCc2ccccc21)N1CCN(Cc2ccc3c(c2)OCO3)CC1 (stereo unspecified) | inconclusive [inhibitor, partial curve, poor fit]
2 | CC(C)(C)N1CSC(=S)N(Cc2ccccc2)C1 | inactive
3 | O=c1[nH]n2c(=O)c3c([nH]c2c1N=Nc1cccc(Cl)c1)CCCC3 | active: 10 µM
4 | COc1ccc(C(=O)CSc2nnc(-c3cc4ccccc4cc3O)n2Cc2ccco2)cc1 | inconclusive [activator, single point]
5 | CCC(CC)c1nnc(NC(=O)c2cc(-c3ccccc3)nc3ccccc23)s1 | inactive
6 | COc1ccc(/C=C/C(=O)Nc2cc(C)nn2-c2nc3ccccc3[nH]2)cc1 | inconclusive [inhibitor, partial curve]
7 | O=c1cc(N2CCCCC2)c(-c2ccccc2)nn1Cc1c(Cl)cccc1Cl | active: 10 µM
8 | O=C1CC(N2CCN(c3ccccc3F)CC2)C(=O)N1c1ccc2c(c1)OCCO2 (stereo unspecified) | inactive
9 | CC1=C(C(=O)OCC2CCCO2)C(c2ccncc2)C2=C(CCCC2=O)N1 (stereo unspecified) | inactive
10 | CC1CCCCN1c1ncnc2ccccc12 (stereo unspecified) | inactive
11 | N#CC(c1cccc(Cl)c1)c1ccc2c(C(F)(F)F)cc(C(F)(F)F)nc2n1 (stereo unspecified) | active: 10 µM
12 | COc1ccc(CCN(C(=S)Nc2ccccc2)C2CC(=O)N(c3ccccc3)C2=O)cc1 (stereo unspecified) | inconclusive [inhibitor, single point]
13 | FC(F)(F)c1cc(-c2ccccc2)nc(N2CCOCC2)n1 | inconclusive [inhibitor, single point]
14 | CCc1ccc(NC(=O)c2ccc3nc(N)sc3c2)cc1 | inactive
15 | c1cc2c(c(NCc3ccncc3)c1)CCCC2 | inconclusive [inhibitor, single point]
16 | Cc1oc(C(C)(C)C)cc1C(=O)NCc1ccc2c(c1)OCO2 | inactive
17 | COc1ccc([N+](=O)[O-])cc1NC(=O)CSCc1ccccc1C | inconclusive [activator, full curve]
18 | CC(=O)c1sc(-c2ccc(F)cc2)cc1NS(=O)(=O)c1ccc(C)cc1 | inconclusive [activator, partial curve]
19 | COc1ccc(C2=NO[C@@H]3C(=O)N(c4ccc(C)cc4C)C(=O)[C@H]23)cc1OC | inactive
20 | COc1ccc(Nc2nc(N)nc(CSC(=S)N3CCCCC3C)n2)cc1 (stereo unspecified) | inactive
21 | O=c1c(/C=N/O)c(Nc2ccccc2)nc2ccccn12 | inconclusive [inhibitor, full curve, poor fit]
22 | COC(=O)c1c(-c2cc(OC)c(OC)c(OC)c2)c2ccnc(OCc3ncccn3)c2c(=O)n1Cc1ccnc(C)c1 | inconclusive [inhibitor, partial curve, poor fit]
23 | O=C(c1ccc(S(=O)(=O)N2CCCCC2)cc1)N1CCN(CCN2C(=O)c3cccc4cccc(c34)C2=O)CC1 | inactive
24 | O=c1c2c(-c3cccs3)csc2[nH]c(=S)n1-c1ccccc1 | inconclusive [inhibitor, partial curve]

Row | Compound | Potency
25 | C/C(N)=C(/C#N)C(=O)COC(=O)c1ccc(C)c(S(=O)(=O)N2CCCCC2)c1 | inconclusive [inhibitor, partial curve]
26 | Cc1c(Cl)cccc1NC(=S)NCc1cccn1C | inactive
27 | CCS(=O)(=O)c1nc(S(=O)(=O)c2ccc(Cl)cc2)c(N2CCc3ccccc3C2)s1 | inactive
28 | CC1=C(C(=O)Nc2ccc([N+](=O)[O-])cc2)C(c2cccc(C(F)(F)F)c2)NC(=S)N1c1ccccc1 (stereo unspecified) | inconclusive [inhibitor, single point]
29 | CCSc1nc2ccccc2n1C(=O)/C=C\c1ccc(OC)c(OC)c1 | inconclusive [inhibitor, partial curve]
30 | COc1nc(N2CCCCCC2)nc(N2CCCCCC2)n1 | inactive
31 | CCCC(=O)Nc1cc(C(=O)O)ccc1S(=O)(=O)c1ccc(C)cc1 | inactive
32 | COc1ccc(-c2cc(C(F)(F)F)nc(-n3cc(Br)cn3)n2)cc1 | inconclusive [inhibitor, single point]
33 | Cc1ccc(-c2nn(C)c(=O)c3ccccc23)cc1CNC(=O)Cn1nc(-c2ccccc2)c2ccccc2c1=O | inconclusive [inhibitor, single point]
34 | FC(F)(F)c1nnc(-c2ccccc2)nc1Sc1ccc(Cl)cc1 | inconclusive [inhibitor, single point]
35 | O=C1c2ccccc2C(=O)c2[nH]cnc21 | inactive
36 | Cc1ccc(N=C/C(C(=O)C(F)(F)F)=C(\O)c2ccco2)cc1Cl | inactive
37 | O=C(O)CSc1nnc(-c2ccccc2)o1 | inconclusive [inhibitor, partial curve, poor fit]
38 | COC(=O)c1ccc(CSc2nc(C(F)(F)F)c3c(c2C#N)CCC3)o1 | inconclusive [inhibitor, single point]
39 | COc1ccc(/C=C2/S/C(=N/S(=O)(=O)Cc3ccccc3)NC2=O)cc1OC | inconclusive [inhibitor, single point]
40 | COc1ccccc1N=C1SC(C(=O)Nc2ccc(F)cc2)CC(=O)N1C (stereo unspecified) | inactive
41 | C/C(=N\O)c1ccc(N2C(=O)C3CC=C(Cl)CC3C2=O)cc1 (stereo unspecified) | inconclusive [activator, single point]
42 | Cc1[nH]nc2c1C(c1ccc(Cl)cc1)C(C#N)=C(N)O2 (stereo unspecified) | inconclusive [inhibitor, partial curve, poor fit]
43 | CN(C)c1ccc(N=C/C=C2\N(C)c3ccccc3C2(C)C)cc1 | inconclusive [inhibitor, partial curve]
44 | COC(=O)c1sccc1NC(=S)N1CCN(c2ccccc2)CC1 | inactive
45 | CC1Cc2ccccc2N1C(=O)COC(=O)Cn1nnc(-c2ccccc2)n1 (stereo unspecified) | inconclusive [activator, partial curve]
46 | COC(=O)c1sccc1NC(=O)c1ccc(OC)cc1 | inconclusive [inhibitor, full curve, poor fit]
47 | S=C(Nc1ccc(Cl)c(Cl)c1)NC1CCCCC1 | inconclusive [inhibitor, single point]
48 | CCCCCC(=O)Nc1sc(C)c(C)c1C#N | inactive

Row | Compound | Potency
49 | O=C(c1c(F)cccc1F)N1CCN(c2ccccc2F)CC1 | inactive
50 | CSc1nc(C(=O)N2CCc3c([nH]c4ccccc34)C2c2ccccn2)cs1 (stereo unspecified) | inconclusive [activator, single point]
51 | S=C(Nc1ccc(Cl)cc1)NC1CCCCC1 | inconclusive [activator, single point]
52 | Cc1cc(C)n(-c2nc(NCCCO)c3c4c(sc3n2)CCCC4)n1 | inactive
53 | COc1cc(C)c(CNc2ccc(OC)c(OC)c2)cc1C | inactive
54 | COc1ccc(/C=N/NC(=O)c2cc(-c3ccc4c(c3)OCO4)n[nH]2)cc1OC | inconclusive [activator, single point]
55 | CCCCCOP(=O)(OCCCCC)C1(NS(=O)(=O)c2ccccc2)C=CC(=O)c2ccccc21 (stereo unspecified) | active: 10 µM
56 | CCOc1ccc(CN(C(=O)c2oc3cc(C)ccc3c2C)C2CCS(=O)(=O)C2)cc1 (stereo unspecified) | inconclusive [inhibitor, single point]
57 | COc1ccc(C(=O)Nc2ccccc2N2CCCCC2)cc1[N+](=O)[O-] | inconclusive [activator, partial curve]
58 | CCOc1ccc(-c2cn(S(=O)(=O)c3cccc4nsnc34)nc2N)cc1 | inconclusive [inhibitor, single point]
59 | CCOC(=O)N1CCC(NC(=O)CCC(=O)N2CCOc3ccccc32)CC1 | inconclusive [inhibitor, single point]
60 | O=C(/C=C/c1ccc([N+](=O)[O-])cc1)NCCOc1ccc(F)cc1 | inconclusive [inhibitor, single point]
61 | CCCCCCCC/C=C\CCCCCCCC(=O)NCCc1ccc(O)c(O)c1 | inconclusive [inhibitor, partial curve]
62 | CC1CCc2nn(CC(=O)NC3CCCC(C)C3C)cc2C1 (stereo unspecified) | inconclusive [inhibitor, single point]
63 | O=C(Oc1c(-c2ccccc2)oc2ccccc2c1=O)c1ccccc1 | inconclusive [inhibitor, partial curve, poor fit]
64 | CCN(CC(=O)Nc1c(F)cccc1F)C(=O)Cc1ccccc1 | inactive
65 | COc1ccc(N(C(=O)CCl)C(C(=O)NCCc2ccccc2)c2cccs2)cc1Cl (stereo unspecified) | inconclusive [inhibitor, single point]
66 | CC(C)(C)C(=O)Nc1ccc(C(=O)N/N=C/c2ccccc2OC(=O)c2ccc(Cl)cc2Cl)cc1 | inconclusive [inhibitor, partial curve, poor fit]
67 | COc1cc(/C=C2/C(=O)NN(c3cccc(F)c3)C2=O)ccc1OC(=O)c1ccco1 | inconclusive [inhibitor, single point]
68 | COc1cc(-c2nc(-c3ccc4c(c3)-c3ccccc3S4(=O)=O)c(-c3ccccc3)[nH]2)cc(OC)c1O | inconclusive [inhibitor, single point]
69 | COc1ccc(S(=O)(=O)NCC2CCCN(C(=O)CC3CCCC3)C2)cc1 (stereo unspecified) | inactive
70 | O=C(c1cc(Cl)cc(Cl)c1)N1CCN(c2cc(C(F)(F)F)nc3ccccc23)CC1 | inactive
71 | COC(=O)c1sc(C(F)(F)F)c(-c2ccccc2)c1S(=O)(=O)N1CCCC1 | inconclusive [activator, partial curve]
